Assay results reported in the supplement of paper PMC11417369.
± gives the standard deviation of the averaged measurements. Some of the results follow.

system: PfAP2-LT AP2 domain (GST-tagged); assay: gcPBM binding intensity (ln(normalized median fluorescence intensity)); higher = stronger DNA binding
How it was run: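 GST-fused DNA-binding domains of P. falciparum, expressed in E. coli, were applied at about 25 μg on average for 1 h to an Agilent 4 × 180k array of primer-extended double-stranded 36-bp intergenic genomic probes and negative controls. Binding intensity is the highest Masliner-normalised natural-log median intensity across replicate spots of either probe orientation, measured with Alexa488 anti-GST antibody and a 488 nm scan.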

Row | Sequence | gcPBM binding intensity (ln)
1 | ATTTTTTCTTTTCGATGTACCCTTCTTATTCTTTAT [XGTACX_site3782] | 9.06 ± 0.61
2 | AGAATATATAAGTATACACACATATATATATATATA [CACACA_site201] | 9.91 ± 0.36
3 | ATATCGAAAATTTGGTGTACATTTTTATTTGTTCAA [XGTACX_site3094] | 8.74 ± 0.47
4 | GATATTACGTGTTTGGTATTTTTTGATGTTAATAGG [CACACA_negctrl_site105] | 8.93 ± 0.45
5 | TTATAAATATTCACTGTGCACTGATGGAATATAAAT [GTGCAC_site9739] | 8.67 ± 0.41
6 | TATAAAATAATTAAATGTACATAATATATAAAATAT [XGTACX_site6777] | 8.72 ± 0.5
7 | AACAAAGAGAAATAAACACACACAAAATAAAGAAAA [CACACA_site8704] | 9.46 ± 0.46
8 | ATTAATTAAAATAGTTGTACAATCAAAAAAACAAAA [XGTACX_site7660] | 8.85 ± 0.52
9 | TTTTTGTATGCTTCCCGACTACATTATGTCGTAAAT [GTGCAC_negctrl_site164] | 8.91 ± 0.49
10 | AAATTAAAAATAATTACACACATAGAAAAGTTATAT [CACACA_site7137] | 8.95 ± 0.43
11 | TTTTGCAAATATTACTGTACACAATCTCATATAATT [XGTACX_site2584] | 8.81 ± 0.35
12 | TTTTCAGAAAGACATGCATACAAAAATAAAAAAGAT [TGCATGCA_site814] | 8.89 ± 0.45
13 | CATTCTACAATAAAAAGTACATATATATATTATATA [XGTACX_site921] | 8.55 ± 0.53
14 | TCAAAAAAAATTTTAGTGCATATTTTAGTCAAAACA | 8.25 ± 0.44
15 | TAATATTTCGTTAAGTTTTAAAGAAAAAAAAAAAAA [CACACA_negctrl_site1253] | 8.21 ± 0.53
16 | ATTTAAATAATATGTACACACATTTAAAAAGTTATA [CACACA_site7347] | 8.8 ± 0.31
17 | TTTTTATAACATAAAAGTACATATTTTTAATTTAAT [XGTACX_site4394] | 8.22 ± 0.44
18 | ACACATATAATAGTTACATGCAAAAATACTTTTATT [TGCATGCA_site785] | 9.03 ± 0.47
19 | AAATTAAATGATAGAGCATGCGCTAAAAATGAGAAA [TGCATGCA_site937] | 9.05 ± 0.38

Row | Sequence | gcPBM binding intensity (ln)
20 | TTTTTTTTATTATAAATATATATATTATAAAACGAA [XGTACX_negctrl_site189] | 7.99 ± 0.31
21 | ACCCAAGAGAAAAGAGAAAGAAATATGTGTATATTG [GTGCAC_negctrl_site214] | 8.72 ± 0.47
22 | ATATATATATATATAACATGCAAAGTTCAAAAAAAA [TGCATGCA_site943] | 8.96 ± 0.37
23 | TTATAGTAATAATAATGTACATTTATACACATATAT [XGTACX_site1965] | 8.94 ± 0.47
24 | AAAAAAAACAGACACACACACACATATACATACATA [CACACA_site2665] | 10.3 ± 0.17
25 | CATTATGTTGTAAATACACACATACCTATACATACA [CACACA_site6485] | 9.07 ± 0.28
26 | TATTTATTTATATTTACACACATTCATATAAATTCA [CACACA_site7628] | 8.92 ± 0.44
27 | TTTTTTTTTTTATCTGCACACCCTTTTGTGAATATT [CACACA_site789] | 9 ± 0.48
28 | TCTGAGAATGATAAAAAAAAAAAAAATGAAAAATTA [CACACA_negctrl_site1478] | 8.24 ± 0.63
29 | ATGCAATAAATATACACACACAAATCTATATTTATA [CACACA_site7179] | 9.46 ± 0.29
30 | AAATAAAATAATTATAATACTAAAAATAATACATAA [GTGCAC_negctrl_site106] | 8.65 ± 0.52
31 | AGTTCAAGGATTAAGACACACATATAAATAAATAAA [CACACA_site3662] | 8.97 ± 0.61
32 | AATTATTATATATATATATATATATATTTATATATT [GTGCAC_negctrl_site387] | 9.05 ± 0.3
33 | AAAAAATGGATGATCACACACTTCATAAAAGTTGCA [CACACA_site7109] | 8.86 ± 0.5
34 | TTTTTTTTGTAGAATTGTACTTATAAAATATATATA [XGTACX_site2116] | 8.34 ± 0.45
35 | AATGAGCGTTAAAAATGTACAGAAAATTGGAATTAT [XGTACX_site5743] | 8.91 ± 0.5
36 | AAAACTTTTAGTTATACACACAACATAGAAAATATT [CACACA_site6287] | 8.88 ± 0.33
37 | AACAATCAAATAGACACACACACACCCAAACATAAA [CACACA_site2757] | 10.1 ± 0.11
38 | CTCCTACAAATATGTAGTACATTCAAAATAAATACC [XGTACX_site8207] | 8.56 ± 0.38

Row | Sequence | gcPBM binding intensity (ln)
39 | AAAAAAAAAAAATTCACACACATATAAAAAATTAAG [CACACA_site728] | 8.96 ± 0.47
40 | GTAAAAAATATGAATACACACATAAAGGAAATAACA [CACACA_site1997] | 9.32 ± 0.52
41 | AAAAAAAAAAAAAAAAGTACAGACGTCAAAAAAAAA [XGTACX_site4817] | 8.77 ± 0.59
42 | TTTTTTTTTTTTTTTTTTTTTTTTGGGTCCCATACA [CACACA_negctrl_site913] | 8.07 ± 0.51
43 | TAATATATAAGTATTTGTACATATTCATTCATCTAT [XGTACX_site2935] | 8.84 ± 0.4
44 | TTTTAATTATATTATGCACACACAATTGGAAAAAAA [CACACA_site8598] | 8.85 ± 0.41
45 | AACAAATAAGATAAATGACTTAACAAAAGAAAAAAG [CACACA_negctrl_site1409] | 8.89 ± 0.45
46 | CTTATACATTATTAACGTACATGTTATATGAATAAC [XGTACX_site5752] | 8.69 ± 0.34
47 | TTTTTTTTTTTTTTTTTTTTTTTTAAATGCTTCTAA [TGCATGCA_negctrl_site253] | 7.92 ± 0.22
48 | GTCACATTGTTATATTGTACAAATGTCGTTCTTTTT [XGTACX_site8098] | 9.11 ± 0.41
49 | CACTATCAATATATATGTACATATATATATATATAT [XGTACX_site7854] | 9.71 ± 0.31
50 | TAAATATATAAATACACACAAACATACATATATATA [CACACA_site4050] | 9.24 ± 0.34
51 | ATATAAAAATATATTAATATAAATAAATGGACATAT [XGTACX_negctrl_site488] | 8.88 ± 0.41
52 | ACAACAATATGGAATTGTACATATATATATAAATAT [XGTACX_site3139] | 9.07 ± 0.47
53 | CTAGCAAATACATACACACACACACCCATACATATA [CACACA_site3496] | 9.95 ± 0.18
54 | TATTTTTTTGTGTTTGGTACACACGTTATAAAAAAT [XGTACX_site2655] | 8.8 ± 0.36
55 | TACACAAAACATAAAAGTACATAATAATAAAGTTAA [XGTACX_site8872] | 8.96 ± 0.55
56 | GAACAAATAAAAAGGAGTACAATCAAATCTACGTAT [XGTACX_site343] | 9.07 ± 0.57
